The other results are listed elsewhere or left out. Repeats are few or missing, and single values can be far off.
Columns and labels:
Assay in all cases: cell count relative to DMSO control; melanoma cells; higher = more viable cells
Conditions in all cases: library dose: low library concentration; 72 h
[1] = test system: WM1745
[2] = test system: WM3526
[3] = test system: WM3619
[4] = test system: WM451Lu
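Note: cell number obtained by counting DAPI-stained nuclei in high-throughput microscope images with image analysis software, screen run in 1,536-well plates.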

| Compound | cell count [1] | cell count [2] | cell count [3] | cell count [4] |
| --- | --- | --- | --- | --- |
| Oc1cc(-c2nc(-c3ccccc3)[nH]c2-c2ccncc2)ccc1Cl + O=C(O)C(=O)Nc1sc2c(c1C(=O)O)CCNC2 [TCS401] (first compound 0.2 µM, partner dose 1.66667 µM) | 65.8% | 63.7% | 104% | 109% |
| N#Cc1c(O)c2c(-c3ccc(-c4ccccc4O)cc3)csc2[nH]c1=O + O=S(=O)(c1ccccc1)N(CC(F)(F)F)c1ccc(C(O)(C(F)(F)F)C(F)(F)F)cc1 [T0901317] (first compound 2 µM, partner dose 1.4 µM) | 82.3% | 88% | 82.2% | 89.6% |
| COC(=O)c1sccc1S(=O)(=O)Nc1ccc(Nc2ccccc2)cc1OC + O=S(=O)(c1ccccc1)N(CC(F)(F)F)c1ccc(C(O)(C(F)(F)F)C(F)(F)F)cc1 [T0901317] (first compound 1 µM, partner dose 1.4 µM) | 77.7% | 92.2% | 116% | 97.5% |
| N#Cc1c(O)c2c(-c3ccc(-c4ccccc4O)cc3)csc2[nH]c1=O + c1cc(-c2cnn3cc(-c4ccc(OCCN5CCCCC5)cc4)cnc23)ccn1 [Dorsomorphin] (first compound 2 µM, partner dose 0.4 µM) | 95.1% | 102% | 102% | 109% |
| COc1ccc2c(c1)CCC1C2CCC2(C)C(NCCCCCCN3C(=O)C=CC3=O)CCC12 (stereo not given) + c1cc(-c2cnn3cc(-c4ccc(OCCN5CCCCC5)cc4)cnc23)ccn1 [Dorsomorphin] (first compound 0.4 µM, partner dose 0.4 µM) | 85.9% | 93% | 111% | 95.1% |
| COc1ccc2c(c1)CCC1C2CCC2(C)C(NCCCCCCN3C(=O)C=CC3=O)CCC12 (stereo not given) + Oc1cc(-c2nc(-c3ccccc3)[nH]c2-c2ccncc2)ccc1Cl [L779450] (first compound 0.4 µM, partner dose 0.2 µM) | 66.5% | 84.6% | 73.3% | 110% |
| COC(=O)c1sccc1S(=O)(=O)Nc1ccc(Nc2ccccc2)cc1OC + Oc1nc(-c2ccc(C(F)(F)F)cc2)nc2c1CSCC2 [XAV939] (first compound 1 µM, partner dose 2 µM) | 80.3% | 112% | 112% | 93.9% |
| COc1ccc(COc2ccc(Cc3cnc(N)nc3N)cc2OC)cc1 + COc1cc(N2CCC(N3CCN(C)CC3)CC2)ccc1Nc1ncc(Cl)c(Nc2ccccc2S(=O)(=O)C(C)C)n1 [NVP-TAE684] (first compound 1 µM, partner dose 0.08 µM) | 87.1% | 93.7% | 123% | 95.8% |
| N#Cc1c(O)c2c(-c3ccc(-c4ccccc4O)cc3)csc2[nH]c1=O + Cn1cc(/C=C2\C(=O)Nc3cccnc32)c2ccccc21 [GW441756] (first compound 2 µM, partner dose 0.4 µM) | 96.3% | 91.5% | 131% | 84.1% |
| COc1ccc2c(c1)CCC1C2CCC2(C)C(NCCCCCCN3C(=O)C=CC3=O)CCC12 (stereo not given) + COc1ccc(COc2ccc(Cc3cnc(N)nc3N)cc2OC)cc1 [GW2580] (first compound 0.4 µM, partner dose 1 µM) | 78.7% | 93.7% | 102% | 90.3% |
| Oc1cc(-c2nc(-c3ccccc3)[nH]c2-c2ccncc2)ccc1Cl + CCCCCCCCCCCC1=C(O)C(=O)C=C(O)C1=O [Embelin] (first compound 0.2 µM, partner dose 1.2 µM) | 94.3% | 100% | 108% | 80.6% |
| COc1cc2ncnc(Nc3ccc(Oc4ccccc4)cc3)c2cc1OC + c1cc(-c2cnn3cc(-c4ccc(OCCN5CCCCC5)cc4)cnc23)ccn1 [Dorsomorphin] (first compound 2 µM, partner dose 0.4 µM) | 82.8% | 89.8% | 102% | 109% |
| COC(=O)c1sccc1S(=O)(=O)Nc1ccc(Nc2ccccc2)cc1OC + COc1ccc(COc2ccc(Cc3cnc(N)nc3N)cc2OC)cc1 [GW2580] (first compound 1 µM, partner dose 1 µM) | 109% | 106% | 102% | 102% |
| COc1ccc(-c2ccc3c(N4CCOCC4)nc(N4C[C@@H](C)O[C@@H](C)C4)nc3n2)cc1CO + O=S(=O)(c1ccccc1)N(CC(F)(F)F)c1ccc(C(O)(C(F)(F)F)C(F)(F)F)cc1 [T0901317] (first compound 0.02 µM, partner dose 1.4 µM) | 75.2% | 82.7% | 82.9% | 78.2% |
| Oc1nc(-c2ccc(C(F)(F)F)cc2)nc2c1CSCC2 + c1cc(-c2cnn3cc(-c4ccc(OCCN5CCCCC5)cc4)cnc23)ccn1 [Dorsomorphin] (first compound 2 µM, partner dose 0.4 µM) | 74.9% | 99.3% | 108% | 114% |
| O=S(=O)(c1ccccc1)N(CC(F)(F)F)c1ccc(C(O)(C(F)(F)F)C(F)(F)F)cc1 + Cc1cc([N+](=O)[O-])ccc1NS(=O)(=O)c1cc(Cl)ccc1Cl [FH535] (first compound 1.4 µM, partner dose 1 µM) | 72.4% | 87.2% | 108% | 90.2% |
| c1cc(-c2cnn3cc(-c4ccc(OCCN5CCCCC5)cc4)cnc23)ccn1 [Dorsomorphin] + COc1cc(N2CCC(N3CCN(C)CC3)CC2)ccc1Nc1ncc(Cl)c(Nc2ccccc2S(=O)(=O)C(C)C)n1 [NVP-TAE684] (first compound 0.4 µM, partner dose 0.08 µM) | 78.6% | 90.6% | 127% | 99% |
| CCN(CC)CCCCNc1ncc2cc(-c3cc(OC)cc(OC)c3)c(NC(=O)NC(C)(C)C)nc2n1 + CCCCCCCCCCCC1=C(O)C(=O)C=C(O)C1=O [Embelin] (first compound 0.1 µM, partner dose 1.2 µM) | 95.9% | 108% | 119% | 89.6% |
| CCN(CC)CCCCNc1ncc2cc(-c3cc(OC)cc(OC)c3)c(NC(=O)NC(C)(C)C)nc2n1 + O=C1NC(=O)/C(=C/c2ccc(-c3ccc(F)cc3O)o2)S1 [AS252424] (first compound 0.1 µM, partner dose 1 µM) | 116% | 93.3% | 101% | 110% |
| Oc1cc(-c2nc(-c3ccccc3)[nH]c2-c2ccncc2)ccc1Cl + Cc1cc([N+](=O)[O-])ccc1NS(=O)(=O)c1cc(Cl)ccc1Cl [FH535] (first compound 0.2 µM, partner dose 1 µM) | 73.2% | 76.9% | 78.3% | 107% |
| O=C(O)C(=O)Nc1sc2c(c1C(=O)O)CCNC2 + Cc1cc([N+](=O)[O-])ccc1NS(=O)(=O)c1cc(Cl)ccc1Cl [FH535] (first compound 1.66667 µM, partner dose 1 µM) | 78.6% | 91.2% | 96.7% | 83.6% |
| COc1ccc2c(c1)CCC1C2CCC2(C)C(NCCCCCCN3C(=O)C=CC3=O)CCC12 (stereo not given) + O=S(=O)(c1ccccc1)N(CC(F)(F)F)c1ccc(C(O)(C(F)(F)F)C(F)(F)F)cc1 [T0901317] (first compound 0.4 µM, partner dose 1.4 µM) | 65.9% | 99% | 63.2% | 111% |
| CCCCCCCCCCCC1=C(O)C(=O)C=C(O)C1=O [Embelin] + O=c1cc(-c2cccc3c2Sc2ccccc2S3)oc(N2CCOCC2)c1 [KU55933] (first compound 1.2 µM, partner dose 1 µM) | 72.7% | 96.6% | 95.1% | 99.3% |
| COc1ccc(-c2ccc3c(N4CCOCC4)nc(N4C[C@@H](C)O[C@@H](C)C4)nc3n2)cc1CO + c1cc(-c2cnn3cc(-c4ccc(OCCN5CCCCC5)cc4)cnc23)ccn1 [Dorsomorphin] (first compound 0.02 µM, partner dose 0.4 µM) | 79.8% | 97.1% | 109% | 85.3% |
| COc1cc2ncnc(Nc3ccc(Oc4ccccc4)cc3)c2cc1OC + Oc1cc(-c2nc(-c3ccccc3)[nH]c2-c2ccncc2)ccc1Cl [L779450] (first compound 2 µM, partner dose 0.2 µM) | 73.3% | 85.3% | 107% | 101% |
| COc1cc2ncnc(Nc3ccc(Oc4ccccc4)cc3)c2cc1OC + CCCCCCCCCCCC1=C(O)C(=O)C=C(O)C1=O [Embelin] (first compound 2 µM, partner dose 1.2 µM) | 85.6% | 56.1% | 130% | 103% |
| COc1ccc2c(c1)CCC1C2CCC2(C)C(NCCCCCCN3C(=O)C=CC3=O)CCC12 (stereo not given) + CCCCCCCCCCCC1=C(O)C(=O)C=C(O)C1=O [Embelin] (first compound 0.4 µM, partner dose 1.2 µM) | 104% | 101% | 138% | 97.8% |
| COc1ccc(COc2ccc(Cc3cnc(N)nc3N)cc2OC)cc1 + COc1cc2ncnc(Nc3ccc(Oc4ccccc4)cc3)c2cc1OC [SrcI1] (first compound 1 µM, partner dose 2 µM) | 80.5% | 112% | 94.8% | 102% |
| Oc1cc(-c2nc(-c3ccccc3)[nH]c2-c2ccncc2)ccc1Cl + O=C1NC(=O)/C(=C/c2ccc(-c3ccc(F)cc3O)o2)S1 [AS252424] (first compound 0.2 µM, partner dose 1 µM) | 91.6% | 65.1% | 61.6% | 107% |
| CCN(CC)CCCCNc1ncc2cc(-c3cc(OC)cc(OC)c3)c(NC(=O)NC(C)(C)C)nc2n1 + Cc1cc([N+](=O)[O-])ccc1NS(=O)(=O)c1cc(Cl)ccc1Cl [FH535] (first compound 0.1 µM, partner dose 1 µM) | 84.7% | 92.8% | 74.4% | 99.1% |

From the supplement of paper PMC4604168 (melanoma cell lines)
